Columns and labels:
Sprague-Dawley rats [1] = conditions: rat, in vivo
Sprague-Dawley rats [2] = system: Sprague-Dawley rats

## CC(=O)O[C@@]12CO[C@@H]1C[C@H](O)[C@@]1(C)C(=O)[C@H](OC(=O)C3CC3)C3=C(C)[C@@H](OC(=O)[C@H](O)[C@@H](NC(=O)OC4CCC4)c4cccs4)C[C@@](O)([C@@H](OC(=O)c4ccccc4)C12)C3(C)C (some centres unmarked) [Compound 18365]
Sprague-Dawley rats [1]
  Day 10 BW (recovery), points toward toxicity score: 0
  Day 10 PLT (recovery), points toward toxicity score: 0
  Day 10 WBC (recovery), points toward toxicity score: 0

## CCC(=O)O[C@H]1C(=O)[C@@]2(C)C([C@H](OC(=O)c3ccccc3)[C@]3(O)C[C@H](OC(=O)[C@H](O)[C@@H](NC(=O)OC4CCC4)c4cccs4)C(C)=C1C3(C)C)[C@]1(OC(C)=O)CO[C@@H]1C[C@@H]2O (some centres unmarked) [Compound 19244]
Sprague-Dawley rats [2]; 12 mg/kg IV
  axonal degeneration: less than the docetaxel control
Sprague-Dawley rats [2]; 12 mg/kg IV, individual rats
  Neuro Tox (axonal degeneration score): 0 (no degen axons)
Sprague-Dawley rats [2]; Sprague-Dawley, rat, in vivo
  Day 10 BW, recovery score points: 0
  Day 10 PLT, recovery score points: 0
  Day 10 WBC, recovery score points: 0
Sprague-Dawley rats [1]
  Day 10 BW (recovery), points toward toxicity score: 0
  Day 10 PLT (recovery), points toward toxicity score: 0
  Day 10 WBC (recovery), points toward toxicity score: 0

## CCC(=O)O[C@H]1C(=O)[C@@]2(C)C([C@H](OC(=O)c3ccccc3)[C@]3(O)C[C@H](OC(=O)[C@H](O)[C@@H](NC(=O)OC4CCCC4)c4cccs4)C(C)=C1C3(C)C)[C@]1(OC(C)=O)CO[C@@H]1C[C@@H]2O (some centres unmarked) [Compound 18926]
Sprague-Dawley rats [1]
  Day 10 BW (recovery), points toward toxicity score: 0
  Day 10 PLT (recovery), points toward toxicity score: 0
  Day 10 WBC (recovery), points toward toxicity score: 0
